Where a name gives a salt, the structure may show the parent alone. ± gives the standard deviation of the averaged measurements. The full ranking holds about 2,600 compounds; the median of “MBP+ mature oligodendrocyte number relative to DMSO vehicle control” is about -0.34, and the highest 2% start at about 13. This is one part of the list.
What follows are compounds tested on jimpy (Plp1 jimpy) mouse iPSC-derived oligodendrocyte progenitor cells (assay: MBP+ mature oligodendrocyte number relative to DMSO vehicle control (SDs above negative control mean); higher = more surviving jimpy oligodendrocytes (rescue)). Settings: 10 µM; 3 days.
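Further: 10 µM single dose with 3-day oligodendrocyte differentiation.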

Structure (SMILES)	MBP+ mature oligodendrocyte number
Cc1cccc(-c2[nH]ncc2-c2ccc3ncccc3n2)n1	-1.19 ± 2.3
NCCCCN [Putrescine dihydrochloride]	-0.604
CN(Cc1ccc(C(C)(C)C)cc1)Cc1cccc2ccccc12 [Butenafine HCl]	21.1
O=C(NCCCNc1nc(Nc2cccc(NC(=O)N3CCCC3)c2)ncc1I)c1cccs1	-6.61
CCOC(=O)[C@@H](N)Cc1ccc(O)c(O)c1 [L-Dopa ethyl ester]	0.136
O=C1Nc2ccc(I)cc2/C1=C/c1cc(Br)c(O)c(Br)c1	0.845 ± 0.41
O=C1N=C(O)NC1(c1ccccc1)c1ccccc1 [Phenytoin sodium]	1.08 ± 1.6
COc1cc(NS(=O)(=O)c2ccc(N)cc2)nc(OC)n1 [Sulphadimethoxine]	4.57
CC1(C)O[C@@H]2[C@@H](CO[C@@]3(COS(N)(=O)=O)OC(C)(C)O[C@@H]23)O1 [Topiramate]	-0.938
CN(C)c1cc(NC(=O)CNC(C)(C)C)c(O)c2c1C[C@H]1C[C@H]3[C@H](N(C)C)C(O)=C(C(N)=O)C(=O)[C@@]3(O)C(O)=C1C2=O [Tigecycline]	-0.415
COc1cc2c(cc1OC)-c1c/c(=N\c3c(C)cc(C)cc3C)n(C)c(=O)n1CC2 [Trequinsin hydrochloride]	0.789
Cc1cccc(Nc2ccncc2S(=O)(=O)NC(=O)NC(C)C)c1 [Torsemide]	2.14
CSc1c(C)c(SC)n2ccncc12 [Oltipraz metabolite M2]	-2.35
O=C(c1ccc(F)cc1)N1CCC[C@H](c2nc(-c3ccc(F)cc3)no2)C1	2.72
Cc1ccc(Cl)cc1N(CC(=O)Nc1c(F)cccc1F)S(C)(=O)=O	0.933
NC(=O)N1c2ccccc2CC(=O)c2ccccc21 [Oxcarbazepine]	1.59
NC1=NCC2c3ccccc3Cc3ccccc3N12 (stereo unspecified) [Epinastine hydrochloride]	-1.17
NC1=NCC2c3ccccc3Cc3ccccc3N12 (stereo unspecified) [Epinastine HCl]	5.9
Oc1nc(-c2ccc(C(F)(F)F)cc2)nc2c1CSCC2	-3.38
CC(C)Cn1cnc2c(N)nc3ccccc3c21 [Imiquimod]	-0.0654
CN(C)c1ccc(-c2nc3ncc(Cl)c(N4CCN(CC(=O)Nc5nccs5)CC4)c3[nH]2)cc1	-2.99
C[C@H](CCC(=O)NCCS(=O)(=O)O)[C@H]1CC[C@H]2[C@@H]3[C@H](O)C[C@@H]4C[C@H](O)CC[C@]4(C)[C@H]3C[C@H](O)[C@]12C [Sodium Taurocholate hydrate]	-0.433
Nc1ccccc1NC(=O)c1ccc(CNc2nccc(-c3cccnc3)n2)cc1 [Mocetinostat (MGCD0103)]	< -6.7
CN1CC(=O)N=C1NC(=O)Nc1cccc(Cl)c1 [Fenobam]	-0.794
CC[C@H](C)C(=O)O[C@H]1C[C@H](O)C=C2C=C[C@H](C)[C@H](CC[C@@H](O)C[C@@H](O)CC(=O)O)[C@H]21 [Pravastatin sodium]	-2.83
CCCc1c(OCCCOc2ccc(OCC(=O)O)cc2)ccc(C(C)=O)c1O	-0.439

Structure (SMILES)	MBP+ mature oligodendrocyte number
CC1=C(C(=O)O)N2C(=O)[C@@H](NC(=O)[C@H](N)c3ccccc3)[C@H]2SC1 [Cephalexin]	-1.55
CC1=C(C(=O)O)N2C(=O)[C@@H](NC(=O)[C@H](N)c3ccccc3)[C@H]2SC1 [Cephalexin hydrate]	0.549
Cc1nccn1CC1CCc2c(c3ccccc3n2C)C1=O (stereo unspecified) [Ondansetron HCl]	12.8
CC(=O)NC[C@H]1CN(c2ccc(N3CCOCC3)c(F)c2)C(=O)O1 [Linezolid]	1.72 ± 2.5
O=c1c2ccccc2[nH]c(=S)n1CCN1CCC(=C(c2ccc(F)cc2)c2ccc(F)cc2)CC1 [Diacylglycerol Kinase Inhibitor II]	2.18
COc1ccc2c(c1)c(CC(=O)OCC(=O)O)c(C)n2C(=O)c1ccc(Cl)cc1 [Acemetacin]	-3.19
COc1cc2c(cc1Cc1cccc(Cl)c1F)c(=O)c(C(=O)O)cn2[C@H](CO)C(C)C [Elvitegravir (GS-9137, JTK-303)]	-2.9
COc1ccc2cc3[n+](cc2c1OC)CCc1cc2c(cc1-3)OCO2 [Berberine HCl]	< -4.81
CC[C@@]1(O)C(=O)OCc2c1cc1n(c2=O)Cc2cc3c(CN(C)C)c(O)ccc3nc2-1 [Topotecan HCl]	< -6.7
CC[C@@]1(O)C(=O)OCc2c1cc1n(c2=O)Cc2cc3c(CN(C)C)c(O)ccc3nc2-1 [Topotecan hydrochloride hydrate]	-3.89
Nc1nnc(-c2cccc(Cl)c2Cl)c(N)n1 [Lamotrigine]	-0.484 ± 0.38
Cc1cc(Nc2cc(CN3CCOCC3)c3nc(C)c(Cc4ccc(Cl)cc4F)n3n2)n[nH]1	< -4.81
Nc1nc(=O)[nH]cc1F [Flucytosine]	1.78
CCN1CCN(c2ccc(Nc3cc(N(C)C(=O)Nc4c(Cl)c(OC)cc(OC)c4Cl)ncn3)cc2)CC1	0.451
Oc1cc(O)cc(/C=C/c2ccc(O)c(O)c2)c1 [Piceatannol]	-4.95 ± 1.5
Cc1cccc(C2CN(C)CCc3c2cc(O)c(O)c3Cl)c1 (stereo unspecified)	1.5
CC(=O)O[C@]1(C(C)=O)CC[C@H]2[C@@H]3C=C(C)C4=CC(=O)CC[C@]4(C)[C@H]3CC[C@@]21C [Megestrol Acetate]	15.4
C=C1[C@H](CO)[C@@H](O)C[C@@H]1n1cnc2c(=O)[nH]c(N)nc21 [Entecavir Hydrate]	-0.415
CN(C)C(=O)c1cc2cnc(Nc3ccc(N4CCNCC4)cn3)nc2n1C1CCCC1	11.4
CCCC(=O)Nc1cccc(NC(=O)c2ccccc2Br)c1	2.72
COc1cc2ncnc(Nc3ccc(O)c(Br)c3)c2cc1OC	-4.02
COc1cc(-c2cc(-c3cccc(O)c3)cnc2N)cc(OC)c1OC	-6.01
N[C@@H](CC(=O)N1CCn2c(nnc2C(F)(F)F)C1)Cc1cc(F)c(F)cc1F [Sitagliptin phosphate monohydrate]	0.184
Cn1cc(C2=C(c3cn(CCCSC(=N)N)c4ccccc34)C(=O)NC2=O)c2ccccc21 [Ro 31-8220 Mesylate]	-5.25
C[C@@H]1O[C@@H](O[C@H]2[C@H](Oc3cc(O)c4c(c3)O[C@H](c3ccc(O)cc3)CC4=O)O[C@H](CO)[C@@H](O)[C@@H]2O)[C@H](O)[C@H](O)[C@H]1O [Naringin]	-0.5
C/C(O)=C(\C#N)C(=O)Nc1ccc(C(F)(F)F)cc1 [Teriflunomide]	0.913

Structure (SMILES)	MBP+ mature oligodendrocyte number
COc1nc(C)cnc1NS(=O)(=O)c1cccnc1-c1ccc(-c2nnco2)cc1 [Zibotentan (ZD4054)]	2.47
Cn1cc(/C=C/C(=O)c2cccc(F)c2)cc1/C=C/C(=O)NO	3.04
Nc1nccc2c1ncn2C1C=C(CO)C(O)C1O (stereo unspecified) [3-Deazaneplanocin A (DZNeP)]	-6.27
C[C@@H]1O[C@@H](OC[C@H]2O[C@@H](Oc3c(-c4ccc(O)c(O)c4)oc4cc(O)cc(O)c4c3=O)[C@H](O)[C@@H](O)[C@@H]2O)[C@H](O)[C@H](O)[C@H]1O [Rutin]	-0.724
CCCC(=O)Nc1ccc(OCC(O)CNC(C)C)c(C(C)=O)c1 (stereo unspecified) [Acebutolol HCl]	-2.04
COc1ccnc2[nH]cc(C(=O)C(=O)N3CCN(C(=O)c4ccccc4)C[C@H]3C)c12	0.263
CO/N=C(\C(=O)N[C@@H]1C(=O)N2C(C(=O)O)=C(CSC(=O)c3ccco3)CS[C@H]12)c1csc(N)n1 [Ceftiofur HCl]	0.787
CN1[C@@H]2CC[C@H]1C[C@@H](OC(c1ccccc1)c1ccccc1)C2 [Benztropine mesylate]	-0.301 ± 0.8
N=C(N)c1ccc(N=NNc2ccc(C(=N)N)cc2)cc1 [Diminazene Aceturate]	-2.47
C[C@H](CCC(=O)O)[C@H]1CC[C@H]2[C@@H]3C[C@H](O)[C@@H]4C[C@H](O)CC[C@]4(C)[C@H]3CC[C@]12C [Hyodeoxycholic acid (HDCA)]	0.227
CC1(C)C(=O)N(CCN2CCC(C(=O)c3ccc(F)cc3)CC2)c2ccccc21 [LY-310,762 hydrochloride]	-3.73
CC(C)(C)OC(=O)N[C@H]1CCCCC/C=C\[C@@H]2C[C@@]2(C(=O)NS(=O)(=O)C2CC2)NC(=O)[C@@H]2C[C@@H](OC(=O)N3Cc4cccc(F)c4C3)CN2C1=O [Danoprevir (ITMN-191)]	0.109
NC(=O)Nc1sc(-c2ccc(F)cc2)cc1C(N)=O	-5.93
N=C(N)SCCN [2-(2-Aminoethyl)isothiourea dihydrobromide]	-1.14
COc1cc2ncnc(Nc3ccc(F)c(Cl)c3)c2cc1NC(=O)/C=C/CN1CCCCC1	-5.93
CCCCC1C(=O)N(c2ccccc2)N(c2ccccc2)C1=O [Phenylbutazone]	0.489 ± 0.94
COCCCOc1cc(C[C@@H](C[C@H](N)[C@@H](O)C[C@H](C(=O)NCC(C)(C)C(N)=O)C(C)C)C(C)C)ccc1OC [Aliskiren Hemifumarate]	1.79
CCCc1nc2c(C)cc(-c3nc4ccccc4n3C)cc2n1Cc1ccc(-c2ccccc2C(=O)O)cc1 [Telmisartan]	0.523
O=C(O)Cc1ccc(O)c(O)c1 [3,4-Dihydroxyphenylacetic acid]	-0.387
CC(=O)/N=c1/sc(S(N)(=O)=O)nn1C [Methazolamide]	1.13 ± 1.5
CC1=CC(=O)c2ccccc2C1=O [Menadione]	-4.97
Cc1ccc(C(=O)N(CCCN)[C@@H](c2nc3cc(Cl)ccc3c(=O)n2Cc2ccccc2)C(C)C)cc1	< -6.7
N=C(N)N1CCc2ccccc2C1 [Debrisoquin sulfate]	0.869
C[C@@H](Oc1cc(-c2cnn(C3CCNCC3)c2)cnc1N)c1c(Cl)ccc(F)c1Cl	-6.61
